Results as given in PubChem BioAssay AID1347073 (National Center for Advancing Translational Sciences (NCATS), 2019).
The whole screen tested about 45,000 compounds, of which about 200 (0.44%) were called active. Another 7% or so got no clear call; they are omitted. Calls follow the shape of the dose curve; as a rule, active = well fitted activation curve with a large enough effect; inconclusive = small, poorly fitted or top-dose-only effect; inactive = no such curve, though single readings can be large or run the other way. The list shows a part of the results.

assay: qHTS of TDP-43 Inhibitors: NCGC Sytravon Library Screen; conditions: yeast TDP-43 toxicity rescue, BacTiter-Glo growth, 24 h; series mostly up to 46.1 µM; growth rescue (activation): at the top concentration; also: 0% is about no effect; nearly all actives have a fitted effect of over 55% in size
In short: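 TDP-43-expressing yeast, pregrown in raffinose, seeded at OD600 0.02 in galactose medium with compound for 24 hr at 30 deg C. Growth read by BacTiter-Glo luminescence, so rescue of toxicity appears as activation.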

SMILES | growth rescue (activation)
O=C(COc1ccccc1)Nc1ccc(S(=O)(=O)Nc2ccccn2)cc1 | inactive: -11.4%
CCCCNC(=O)c1ccccc1NC(=O)CN(c1ccccc1)S(=O)(=O)N(C)C | inactive: 3.32%
CC1=C(C(=O)Nc2ccccc2C(F)(F)F)C(c2ccc(C)s2)NC(=S)N1 (configuration not stated) | inactive: 7.74%
OC(c1ccccc1)c1ncc(-c2ccc(Oc3ccccc3)cc2)[nH]1 (configuration not stated) | inactive: 7.16%
COc1ccc(-c2cc(C(=O)OCC(=O)N(C)C3CCS(=O)(=O)C3)c3ccccc3n2)cc1OC (configuration not stated) | inactive: -5.38%
CCn1cc(CNC(=O)C2C3CCC(C3)C2C(=O)O)cn1 (configuration not stated) | inactive: -0.0596%
COc1ccc(NC(=O)c2ccc(NC(=O)CN(C)CC(=O)Nc3c(C)cccc3C)cc2)cc1 | inactive: 19.8%
COc1ccc(S(=O)(=O)N2CCN(C(=O)N(C)C)C2C)cc1 (configuration not stated) | inactive: -0.949%
CCOC(=O)c1c(C)c(C(=O)NCc2ccc3c(c2)OCO3)c(C)n1CC | inactive: 0.679%
Cn1cccc1C(=O)OCC(=O)NC(=O)c1ccc(Cl)cc1 | inactive: 6.92%
CCOc1ccccc1NC(=O)COC(=O)C1CCC(=O)N1 (configuration not stated) | inactive: 0.183%
Cc1ccc(C)c(C(=O)COC(=O)c2c(-c3ccccc3)noc2C)c1 | inactive: 20.5%
COc1ccc(C(=O)Nc2cnc(NC(=O)c3cccs3)cc2C)cc1 | inactive: 4.13%
O=C(c1c(O)c2ccccc2oc1=O)C1CCC1 | inactive: -91.9%
O=C(OCCOCCN=C1NS(=O)(=O)c2ccccc21)c1ccccc1 | inactive: 18.4%
Cc1cc(C)c(N(C(=O)c2csnn2)C(C(=O)NC(C)(C)C)c2ccncc2)c(C)c1 (configuration not stated) | inactive: 3.72%
O=C(Nc1ccc2c(c1)OCO2)C1CC(=O)N(c2cccc(Cl)c2)C1 (configuration not stated) | inactive: 0.704%
Cc1ccc(C)c(CSc2nnc([C@@H]3CCCN3)o2)c1 | inactive: -1.71%
CCc1nc2ccccc2n1CC(=O)NC1CCS(=O)(=O)C1 (configuration not stated) | inactive: 5.35%
CC(NS(=O)(=O)c1ccc(Cl)c(Cl)c1)C(=O)Nc1cccnc1 (configuration not stated) | inactive: 1.95%
CCOC(=O)C1(C)C=C(Nc2ccc(OC)cc2)C(=O)N1c1ccc(OC)cc1 (configuration not stated) | inactive: 5.81%
O=c1cc(CSc2n[nH]c(-c3ccncc3)n2)nc2sccn12 | inactive: 9.68%

SMILES | growth rescue (activation)
O=C(O)c1cc(-c2ccc3c(c2)OCO3)nc2ccc(Br)cc12 | inactive: 22%
CCOc1ccc(C2/C(=C(\O)c3ccc(OC)c(OC)c3)C(=O)C(=O)N2c2cc(C)on2)cc1OC (configuration not stated) | inactive: 8.03%
O=C(N/N=C/c1cn(-c2ccccc2)nc1-c1cc2ccccc2o1)c1ccncc1 | inactive: 24.8%
Nc1c(-c2ccccc2)c(CN2CCOCC2)nn1-c1cccc([N+](=O)[O-])c1 | inactive: -2.49%
COc1c(C)cccc1C(=O)NC(=S)Nc1cccc2nsnc12 | inactive: -16.9%
CC(=O)NC(c1ccc(C(C)C)cc1)c1ccc2cccnc2c1O (configuration not stated) | inactive: -2.98%
CN1CCN(C(=O)c2ccc(N(C)S(=O)(=O)c3cccs3)cc2)CC1 | inactive: -9.06%
O=C(CSc1nc2ccccc2c(=O)n1CC1CCCO1)Nc1ccccc1 (configuration not stated) | inactive: -21.1%
CC1CC(C)CN(C(=O)c2cccc(NC(=O)CC3SC(N4CCCCC4)=NC3=O)c2)C1 (configuration not stated) | inactive: -14.2%
COCCNC(=O)C1CCCN(C(=O)c2sc(-c3ccccc3)nc2C)CC1 (configuration not stated) | inactive: 6.21%
CS(=O)(=O)c1ccc(-c2cc(NC=O)c3ncc(-c4ccc(F)cc4)n3c2)cc1 | inactive: -5.78%
O=c1[nH]c2ccccc2nc1-c1ccccc1 | inactive: 2.18%
COc1cc(Br)cc2cc(C(=O)N3CCOCC3)c(=O)oc12 | inactive: -2.5%
CCN(Cc1cc(=O)[nH]c2ccccc12)C(=O)C(C)C | inactive: 12.3%
CCNC(=O)COC(=O)COc1ccc(Cl)cc1C | inactive: 5.01%
CCC(=O)c1ccc(OCC(=O)Nc2ccc(S(=O)(=O)Nc3cc(C)nc(C)n3)cc2)cc1 | inactive: 14.9%
NNC(=O)COc1cccc(Oc2ccccc2)c1 | inactive: 21.2%
COc1ccc(NC(=O)Nc2ccc(F)cc2F)cc1 | inactive: 6.85%
Cc1cc2ccccc2n2c(SCC(=O)Nc3ccc(S(=O)(=O)N4CCCCC4)cc3)nnc12 | inactive: -26.1%
COc1ccccc1CNC(=O)c1cc2ccccc2o1 | inactive: 20.5%
COC(=O)c1cc(=O)n(Cc2ccc(OC)cc2)c(=NCc2ccc(OC)cc2)s1 | inactive: 0.862%
O=C(O)CN1C(=O)/C(=C2\C(=O)N(Cc3ccccc3Cl)c3ccccc32)SC1=S | inactive: -7.65%

SMILES | growth rescue (activation)
COc1ccccc1OCC#CCNC1CCCCC1C (configuration not stated) | inactive: -13.9%
COc1ccc(C(=O)OCC(=O)NC2CC2)cc1F | inactive: -21.4%
CC1(Cc2ccc3ccccc3n2)C(=O)Nc2ccc(OC(F)(F)F)cc21 (configuration not stated) | inactive: -4.79%
CCOC(=O)c1nn(-c2ccc3ccccc3c2)cc1O | inactive: -15%
COc1cc(C)ccc1S(=O)(=O)NC1CC(C)(C)NC(C)(C)C1 | inactive: 3.04%
Cc1cc([N+](=O)[O-])ccc1NC(=O)C1CCCO1 (configuration not stated) | inactive: 24.4%
COC(=O)c1ccc(/C=N/NC(=O)c2ccccc2Cl)cc1 | inactive: 8.17%
CCc1ccccc1NC(=O)COc1cccc(-n2cnnn2)c1 | inactive: -13.2%
O=C(Cn1ccc2ccccc2c1=O)NCCC(=O)N1CCN(c2ccccc2)CC1 | inactive: 4.15%
COc1ccc2c(CC(=O)NNC(=O)c3ccc(C)cc3)coc2c1 | inactive: 16%
COc1ccc(/C=N/NC(=O)c2cccc(NC(C)=O)c2)c(C(=O)O)c1OC | inactive: 1.74%
O=c1[nH]c(-c2ccccc2Cl)nc2c1sc(=S)n2-c1ccccc1 | inactive: -0.906%
Cn1cc(P(=O)(N2CCOCC2)N2CCOCC2)cc1P(=S)(N1CCOCC1)N1CCOCC1 | inactive: -0.464%
O=C1Nc2ccccc2C(=O)N2C[C@@H](O)C[C@H]12 | inactive: 6.98%
Cc1ccc(C(=O)NNC(=O)CCn2nnc3ccccc32)cc1 | inactive: -3.86%
O=C(Nc1ccc(O)c(-c2nc3ccccc3o2)c1)C1(c2ccc(Br)cc2)CCCC1 | inactive: 5.88%
CC(C)NC(=O)c1ccc(-n2nc(C(F)(F)F)c3c2CCCC3)cc1 | inactive: 12.6%
CCc1cc(C(=O)OC)c(NC(=O)CN2CCN(C(=O)c3ccco3)CC2)s1 | inactive: -22.6%
O=C(NCCc1nc2ccccc2[nH]1)/C(=C/c1ccco1)NC(=O)c1ccc(Br)cc1 | inactive: 5.73%
CCC(=O)Nc1sc(C(=O)Nc2ccccc2OC)c(C)c1C(=O)OC | inactive: 4.27%
COc1ccc(C2SCCN2C(=S)Nc2ccc(F)cc2)cc1 (configuration not stated) | inactive: -0.809%
O=C(O)C1C2C=CC(C2)C1C(=O)NCCCN1CCOCC1 (configuration not stated) | inactive: 4.68%

SMILES | growth rescue (activation)
CC(=O)c1ccccc1NC(=O)CCN1C(=O)C2CCCCC2C1=O (configuration not stated) | inactive: 7.79%
Cc1c(Cl)cccc1NC(=S)N1CCN(C(=O)C2CCCO2)CC1 (configuration not stated) | inactive: 12.8%
O=C(/C=C/c1cccc(Cl)c1)NCc1ccncc1 | inactive: 14.3%
CC1CCC(NC(=O)C2CCN(S(=O)(=O)c3ccc4nc5c(c(C(=O)O)c4c3)CC(C)CC5)CC2)CC1 (configuration not stated) | inactive: 12.2%
Cc1ccc2nsnc2c1NC(=O)COc1ccccc1 | inactive: 3.83%
Cc1nnn(-c2nonc2N)c1C(=O)NNC(=O)c1ccc(Cl)c(Cl)c1 | inactive: 6.05%
O=C(COC(=O)CNC(=O)c1ccc(Cl)cc1Cl)NC1CC1 | inactive: -3.66%
COc1ccccc1N1CCN(CCCCOc2cccc3ccccc23)CC1 | inactive: -4.47%
FC(F)(F)c1cccc(NC(=S)N2CCN(c3ccccn3)CC2)c1 | inactive: 1.92%
CCCC(=O)NC(c1ccccc1Cl)c1ccc2cccnc2c1O (configuration not stated) | inactive: 12.6%
O=C(NCCCN1CCOCC1)c1cc(Cl)ccc1[N+](=O)[O-] | inactive: -22.9%
Cc1ccc(C(NC(=O)N2CC(C)OC(C)C2)C(Cl)Cl)cc1F (configuration not stated) | inactive: 11%
COc1ccc(NC(=O)COC(=O)Cc2coc3cc(OC)ccc23)c(OC)c1 | inactive: -4%
CCOCCCn1c(SCC(=O)N2CCOCC2)nc2ccccc2c1=O | inactive: -7.7%
O=c1c2ccccc2c(-c2n[nH]c(=S)o2)nn1Cc1ccccc1 | inactive: 12.1%
Cc1c(NCc2cc(Cl)ccc2O)c(=O)n(-c2ccccc2)n1C | inactive: 25.1%
COc1cc(CC(=O)OCc2cccc([N+](=O)[O-])c2)cc(OC)c1OC | inactive: 33.8%
Nc1cc(N)nc(SCC(=O)Nc2ccccc2N2CCOCC2)n1 | inactive: -10.1%
Cc1ccc(S(=O)(=O)N2CCOCC2)cc1NC(=O)COC(=O)c1ccccc1OCc1c(C)noc1C | inactive: 16.9%
CCOC(=O)CSc1nc(C)c2cccc(C)c2n1 | inactive: 26.5%
NC(=O)COC(=O)C1c2ccccc2Oc2ccccc21 | inactive: 3.61%
COc1ccc(NC(=O)/C=C/c2cccc(C(F)(F)F)c2)cn1 | inactive: 22.6%

SMILES | growth rescue (activation)
CCCCCC1C/C(=N\O)C=C(C)C1C(=O)OC (configuration not stated) | inactive: 1.58%
CC(=O)Nc1cccc(Oc2ncnc3scc(-c4ccc(C(C)C)cc4)c23)c1 | inactive: 6.73%
COc1cccc(NC(=O)NC2(C(=O)N3CCN(C)CC3)CCCCC2)c1 | inactive: 10.7%
O=C(Nc1cccc(O)c1)c1cccc(S(=O)(=O)N2CCCCCC2)c1 | inactive: 9.08%
Cc1ccc(S(=O)(=O)Nc2cc(C(F)(F)F)ccc2N2CCOCC2)cc1C | inactive: -5.38%
COc1ccc(C(C(=O)NC2CCCCC2)N(C(=O)c2sc(C)nc2C)c2ccccc2)cc1 (configuration not stated) | inactive: 14%
CC(C)Oc1cccc(C(=O)Nc2nnc([C@H]3C[C@H](O)[C@@H](CO)O3)s2)c1 | inactive: 0.429%
CCOC(=O)c1cc2c(=O)n3cccc(C)c3nc2n(CC(C)C)c1=NC(=O)c1ccco1 | inactive: 2.13%
COc1ccc(OC)c(NC(=O)C2CCN(C(=O)c3cccs3)CC2)c1 | inactive: 12.5%
COc1ccc(CCNC(=O)C(C)SCc2ccccc2)cc1 (configuration not stated) | inactive: 11.3%
C/C(=N\NC(=O)c1cccc(S(=O)(=O)N2CCOCC2)c1)c1ccco1 | inactive: 10.6%
COCCNC(=O)C1(C)CCCN(Cc2cc(C)ccc2C)C1 (configuration not stated) | inactive: 18.7%
O=C(CSc1nc2ccccc2n1S(=O)(=O)c1cccc([N+](=O)[O-])c1)NCc1cccs1 | inactive: 26.9%
Cc1ccccc1C(=O)NC(=S)NC1CC1 | inactive: 19.6%
Cc1ccc(C(=O)OCC(=O)Nc2ccc3[nH]c(=O)[nH]c3c2)cc1[N+](=O)[O-] | inactive: -5.11%
O=C(CN(CC1CCCO1)C(=O)CNS(=O)(=O)c1ccc(Cl)cc1)NC1CCCC1 (configuration not stated) | inactive: 7.89%
COc1ccc2cc(C(=O)C3CCCN(Cc4cnc(N5CCOCC5)s4)C3)ccc2c1 (configuration not stated) | inactive: 6.81%
O=C1N=C(N2CCc3ccccc3C2)S/C1=C\c1ccc(O)cc1 | inactive: 14.8%
N#C/C(=C/c1ccccc1[N+](=O)[O-])c1nnc2n1CCCCC2 | inactive: 10.7%
